Measured values as given in patent US20260265359A1 (Hoffmann-La Roche, published 2026).

T1: recombinant human VEGF-A165 (human, UniProt P15692-4 27-191)
T1 sequence (looked up): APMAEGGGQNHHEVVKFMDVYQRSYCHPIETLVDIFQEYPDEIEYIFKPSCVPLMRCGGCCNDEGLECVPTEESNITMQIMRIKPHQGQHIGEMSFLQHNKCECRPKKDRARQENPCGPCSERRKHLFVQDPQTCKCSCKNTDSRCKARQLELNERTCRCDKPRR

T2: recombinant human IL-6R (human, UniProt P08887 20-365, limits assumed)
T2 construct: Recombinant protein used in ELISA and as SPR analyte; also called hIL-6R
T2 sequence (looked up): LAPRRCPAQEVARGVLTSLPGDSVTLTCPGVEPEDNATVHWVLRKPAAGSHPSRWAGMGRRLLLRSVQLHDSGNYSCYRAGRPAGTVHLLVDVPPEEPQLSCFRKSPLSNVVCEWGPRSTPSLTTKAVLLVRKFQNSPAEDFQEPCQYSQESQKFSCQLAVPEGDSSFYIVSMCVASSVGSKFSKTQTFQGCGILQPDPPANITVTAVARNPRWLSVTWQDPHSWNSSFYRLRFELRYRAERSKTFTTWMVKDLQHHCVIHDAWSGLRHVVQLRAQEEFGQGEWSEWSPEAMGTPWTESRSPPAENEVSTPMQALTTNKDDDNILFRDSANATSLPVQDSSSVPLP


Assays:
[1] = target: T1, recombinant human VEGF-A165; assay: cell-based or functional assay
recombinant human IL-6R = target: T2, recombinant human IL-6R; assay: ELISA on plate-coated recombinant human IL-6R; anti-human IgG1-Fc-HRP, OD450
Procedure: (§1) After non-specific blocking using 1% BSA at 25° C. for 1 hour, a series of dilutions of test antibodies (“Abs”) were added into the coated wells and incubated at 25° C. for 1 hour. The bound Abs were detected using a secondary Ab (goat anti-human IgG1-Fc) conjugated with HRP followed by OD₄₅₀ reading.
The same ELISA procedure was performed with recombinant human IL-6R. […] Vobarilizumab is a single domain antibody against IL-6R. B781402 and B781405 are bispecific fusion antibodies that inhibit VEGF-A, B, PIGF and IL-6R.

[2] = target: T1, recombinant human VEGF-A165; assay: ELISA on plate-coated recombinant human VEGF-A165; anti-human IgG1-Fc-HRP, OD450
Procedure: as §1

| Binder | IC50, inhibition of VEGF-A165-stimulated VEGFR-2 NF-AT luciferase reporter (HEK-293), luminescence [1] | EC50 (recombinant human IL-6R) | EC50 [2] |
| --- | --- | --- | --- |
| EB-105BId1 (other, also called MFDDHD003) fusion polypeptide (IL-6R sdAb, VEGFR-1-D2, VEGFR-2-D3, IgG1 Fc, Ang-2-binding peptide): EVQLVESGGGLVQAGGSLRLSCAASGDDLSSVDMGWYRQAPGKGLEFVGVISRGGGSTYYVDSVQGRFTISRDNAKNTVYLQMNSLRAEDTAVYYCKTEIPYFDDYWGQGTLVTVSSGGSGGGSGGGGSGGGGGSGGGGSDTGRPFVEMYSEIPEIIHMTEGRELVIPCRVTSPNITVTLKKFPLDTLIPDGKRIIWDSRKGFIISNATYKEIGLLTCEATVNGHLYKTNYLTHRQTNTIIDVVLSPSHGIELSVGEKLVLNCTARTELNVGIDFNWEYPSSKHQHKKLVNRDLKTQSGSEMKKFLSTLTIDGVTRSDQGLYTCAASSGLMTKKNSTFVRVHEK[human IgG1 Fc skipped]GGGSGGGGSAQTNFMPMDDLEQRLYEQFILQQGLE | 0.304 nM | 0.117 nM | 0.562 nM |
| EB-105BId2 (other, also called MFDDHD004) fusion polypeptide (Ang-2-binding peptide, VEGFR-1-D2, VEGFR-2-D3, IgG1 Fc, IL-6R sdAb): AQTNFMPMDDLEQRLYEQFILQQGLEGGGGSGGGGSGGGGSSDTGRPFVEMYSEIPEIIHMTEGRELVIPCRVTSPNITVTLKKFPLDTLIPDGKRIIWDSRKGFIISNATYKEIGLLTCEATVNGHLYKTNYLTHRQTNTIIDVVLSPSHGIELSVGEKLVLNCTARTELNVGIDFNWEYPSSKHQHKKLVNRDLKTQSGSEMKKFLSTLTIDGVTRSDQGLYTCAASSGLMTKKNSTFVRVHEK[human IgG1 Fc skipped]GGGSGGGGSGGGGSEVQLVESGGGLVQAGGSLRLSCAASGDDLSSVDMGWYRQAPGKGLEFVGVISRGGGSTYYVDSVQGRFTISRDNAKNTVYLQMNSLRAEDTAVYYCKTEIPYFDDYWGQGTLVTVSS | 0.3 nM | 0.298 nM | 1.06 nM |
| EB-105BId4 (other, also called MFDDHD006) fusion polypeptide (Ang-2-binding peptide, VEGFR-1-D2, VEGFR-2-D3, IgG1 Fc, IL-6R sdAb): AQTNFMPMDDLEQRLYEQFILQQGLEGGGGSGGGGSGGGGSSDTGRPFVEMYSEIPEIIHMTEGRELVIPCRVTSPNITVTLKKFPLDTLIPDGKRIIWDSRKGFIISNATYKEIGLLTCEATVNGHLYKTNYLTHRQTNTIIDVVLSPSHGIELSVGEKLVLNCTARTELNVGIDFNWEYPSSKHQHKKLVNRDLKTQSGSEMKKFLSTLTIDGVTRSDQGLYTCAASSGLMTKKNSTFVRVHEK[human IgG1 Fc skipped]GGGSGGGGSGGGGSEVQLVESGGGLVQAGGSLRLSCAASGGDLSSVDMGWYRQAPGKGLEFVGVISRTGGSTYYVDSVQGRFTISRDNAKNTVYLQMNSLRAEDTAVYYCKTEIPGGDDYWGQGTLVTVSS | 0.269 nM | 0.143 nM | 0.734 nM |
| EB-105BIe1 (other, also called MFDDHD007) fusion polypeptide (Ang-2 sdAb, VEGFR-1-D2, VEGFR-2-D3, IgG1 Fc, IL-6R sdAb): EVQLVESGGGLVQPGGSLRLSCAASGLYFSSYDIAWVRQAPGKGLEFVSAIDVSGEHTYYADSVKGRFTISRDNAKNTLYLQMNSLRAEDTAVYYCNAVKWSDYGPDNDYWGQGTLVTVSSGGGGSGGGGSGGGGSSDTGRPFVEMYSEIPEIIHMTEGRELVIPCRVTSPNITVTLKKFPLDTLIPDGKRIIWDSRKGFIISNATYKEIGLLTCEATVNGHLYKTNYLTHRQTNTIIDVVLSPSHGIELSVGEKLVLNCTARTELNVGIDFNWEYPSSKHQHKKLVNRDLKTQSGSEMKKFLSTLTIDGVTRSDQGLYTCAASSGLMTKKNSTFVRVHEK[human IgG1 Fc skipped]GGGSGGGGSGGGGSEVQLVESGGGLVQAGGSLRLSCAASGDDLSSVDMGWYRQAPGKGLEFVGVISRGGGSTYYVDSVQGRFTISRDNAKNTVYLQMNSLRAEDTAVYYCKTEIPYFDDYWGQGTLVTVSS | 0.572 nM | 0.175 nM | 0.299 nM |

Other lines, results leading:

| IC50, inhibition of VEGF-A165-stimulated VEGFR-2 NF-AT luciferase reporter (HEK-293), luminescence [1] | EC50 (recombinant human IL-6R) | EC50 [2] | Binder |
| --- | --- | --- | --- |
| 0.264 nM | 0.13 nM | 0.462 nM | EB-105BIe2 (other, also called MFDDHD008) fusion polypeptide (IL-6R sdAb, VEGFR-1-D2, VEGFR-2-D3, IgG1 Fc, Ang-2 sdAb): EVQLVESGGGLVQAGGSLRLSCAASGDDLSSVDMGWYRQAPGKGLEFVGVISRGGGSTYYVDSVQGRFTISRDNAKNTVYLQMNSLRAEDTAVYYCKTEIPYFDDYWGQGTLVTVSSGGGGSGGGGSGGGGSSDTGRPFVEMYSEIPEIIHMTEGRELVIPCRVTSPNITVTLKKFPLDTLIPDGKRIIWDSRKGFIISNATYKEIGLLTCEATVNGHLYKTNYLTHRQTNTIIDVVLSPSHGIELSVGEKLVLNCTARTELNVGIDFNWEYPSSKHQHKKLVNRDLKTQSGSEMKKFLSTLTIDGVTRSDQGLYTCAASSGLMTKKNSTFVRVHEK[human IgG1 Fc skipped]GGGSGGGGSGGGGSEVQLVESGGGLVQPGGSLRLSCAASGLYFSSYDIAWVRQAPGKGLEFVSAIDVSGEHTYYADSVKGRFTISRDNAKNTLYLQMNSLRAEDTAVYYCNAVKWSDYGPDNDYWGQGTLVTVSS |
| 0.319 nM | 0.095 nM | 0.365 nM | EB-105BId3 (other, also called MFDDHD005) fusion polypeptide (IL-6R sdAb, VEGFR-1-D2, VEGFR-2-D3, IgG1 Fc, Ang-2-binding peptide): EVQLVESGGGLVQAGGSLRLSCAASGGDLSSVDMGWYRQAPGKGLEFVGVISRTGGSTYYVDSVQGRFTISRDNAKNTVYLQMNSLRAEDTAVYYCKTEIPGGDDYWGQGTLVTVSSGGSGGGSGGGGSGGGGGSGGGGSDTGRPFVEMYSEIPEIIHMTEGRELVIPCRVTSPNITVTLKKFPLDTLIPDGKRIIWDSRKGFIISNATYKEIGLLTCEATVNGHLYKTNYLTHRQTNTIIDVVLSPSHGIELSVGEKLVLNCTARTELNVGIDFNWEYPSSKHQHKKLVNRDLKTQSGSEMKKFLSTLTIDGVTRSDQGLYTCAASSGLMTKKNSTFVRVHEK[human IgG1 Fc skipped]GGGSGGGGSAQTNFMPMDDLEQRLYEQFILQQGLE |
